From PubChem BioAssay AID1347073 (National Center for Advancing Translational Sciences (NCATS), 2019) come the findings set out here.

Hit rate of the full screen: of about 45,000 compounds, about 200 (0.44%) were called active. About 7% were inconclusive and are not listed. The call rests on the fitted dose curve; in most records, active means well fitted activation curve with a large enough effect; inconclusive means small, poorly fitted or top-dose-only effect; inactive means no such curve, though single readings can be large or run the other way. This is one part of the list.

A short description of this test: qHTS of TDP-43 Inhibitors: NCGC Sytravon Library Screen. Further: 0% is about no effect; nearly all actives have a fitted effect of over 55% in size. The settings on record: yeast TDP-43 toxicity rescue, BacTiter-Glo growth, 24 h; series mostly up to 46.1 µM; growth rescue (activation): at the top concentration. The method, boiled down:
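TDP-43-expressing yeast, pregrown in raffinose, seeded at OD600 0.02 in galactose medium with compound for 24 hr at 30 deg C. Growth read by BacTiter-Glo luminescence, so rescue of toxicity appears as activation.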
On the technique in general: Quantitative high-throughput screening tests each substance at several concentrations.
As for `Cc1ccc(S(=O)(=O)Nc2nc(C)c(C(=O)NNS(=O)(=O)c3ccccc3)s2)cc1`, the “growth rescue (activation)” value was inactive: 4.66%.

Consider `Cc1ccc(NC(=O)CN(c2ccc(Cl)cc2)S(=O)(=O)c2cc([N+](=O)[O-])ccc2Cl)cc1`, for which the “growth rescue (activation)” value is inactive: 1.23%.

On to `COc1ccc(/C=N/Nc2cc(N3CCCC3)nc(N3CCCC3)n2)cc1`, for which the “growth rescue (activation)” value was inactive: -0.262%.

For `Cc1ccc(NC(=O)NC(=O)CN2CCN(c3ccc(O)cc3)CC2)c(C)c1`, the “growth rescue (activation)” value is inactive: -1.68%.

For the molecule `CC(C)Oc1ccc(C2CCC(=O)NC2=O)cc1` (centres undefined), the “growth rescue (activation)” value is inactive: -2.75%.

Turning to `CCN1CCCC1CNC(=O)c1ccc(N2CCOCC2)c(NS(=O)(=O)c2ccc(OC)cc2)c1` (centres undefined), the “growth rescue (activation)” value was inactive: 3.89%.

For the molecule `CC(=O)c1c(N2CCN(c3ccccn3)CC2)nc(=S)n(-c2ccccc2)c1C`, the “growth rescue (activation)” value was inactive: -3.76%.

For `N#Cc1ccccc1NC(=O)CSc1ccc([N+](=O)[O-])cn1`, the “growth rescue (activation)” value was inactive: -15.5%.

Consider `CC(=O)c1ccc(Nc2nc3ccc(C)cc3n3cnnc23)cc1`, for which the “growth rescue (activation)” value is inactive: -5.06%.

Take `CCCCC1(C(=O)OCC)NC(c2ccc(O)cc2)C2C(=O)N(c3ccccc3)C(=O)C21` (centres undefined): the “growth rescue (activation)” value is inactive: 3.56%.

For `CCOc1ccc(C(=O)NC(=S)Nc2cccc(NC(=O)c3ccco3)c2)cc1[N+](=O)[O-]`, the “growth rescue (activation)” value is inactive: 0.154%.

As to `CNS(=O)(=O)c1cccc(C(=O)NCC(C)(C)N2CCCCC2)c1`, the “growth rescue (activation)” value is inactive: 6.69%.

Take `CC(=O)NC(Cc1ccccc1)C(=O)OCC(=O)c1ccc(Cl)cc1` (centres undefined): the “growth rescue (activation)” value was inactive: 3.26%.

Regarding `S=C1NNC2(CC3CC2C2CCCC32)NN1` (centres undefined), the “growth rescue (activation)” value is inactive: 2.42%.

As to `COc1ccc(CNC(=O)c2nccnc2CO)cc1`, the “growth rescue (activation)” value is inactive: 5.37%.

As for `CC(C)OC(=O)c1ccc(OC(=O)c2cccnc2)cc1`, the “growth rescue (activation)” value was inactive: 4.05%.

Take `O=C(CCNS(=O)(=O)c1ccc(Br)s1)NCc1ccccc1Cl`: the “growth rescue (activation)” value was inactive: 16.5%.

For `CC1(C)CC(=O)c2c(nc3ccccc3c2N)C1`, the “growth rescue (activation)” value was inactive: 8.47%.

For `Cc1cc(F)ccc1-c1cc(C(=O)NCc2ccc(C(F)(F)F)cc2)[nH]n1`, the “growth rescue (activation)” value is inactive: 19.7%.

Turning to `O=C(COC(=O)c1ccccn1)Nc1c(Cl)cccc1Cl`, the “growth rescue (activation)” value is inactive: 16.1%.

For the molecule `CCOc1ccc(CN2C(=O)c3ccccc3C2C(=O)NC(C)CC)cc1OC` (centres undefined), the “growth rescue (activation)” value is inactive: -14.5%.

As to `Cc1cc(C(=O)Nc2ccc(N3CCCC3)c(Cl)c2)ccc1[N+](=O)[O-]`, the “growth rescue (activation)” value was inactive: 19.9%.

For the molecule `COc1ccc(-n2c(-c3ccc(Br)cc3)c[n+]3c2CCC3)cc1`, the “growth rescue (activation)” value was inactive: -0.771%.

Take `CCc1nc2c(OCC3COc4ccccc4O3)cccn2c1N(C)C(=O)c1ccccc1F` (centres undefined): the “growth rescue (activation)” value was inactive: 3.04%.

Take `Cc1csc(SCC(=O)Nc2ccc3[nH]c(=O)[nH]c3c2)n1`: the “growth rescue (activation)” value is inactive: 7.89%.

On to `O=C(CCc1nnc(C2(c3ccc(Cl)cc3)CCC2)o1)NCCCn1cccn1`, for which the “growth rescue (activation)” value is inactive: -1%.

As for `COc1cc2c(cc1OC)CN(C(=O)CCOc1ccccc1)CC2`, the “growth rescue (activation)” value was inactive: 6.13%.

As to `Cc1ccc(NC(=O)CNCc2cccs2)cc1Br`, the “growth rescue (activation)” value is inactive: -19.2%.

Regarding `CCc1nnc2cccc(Cl)n12`, the “growth rescue (activation)” value is inactive: -12%.

As to `C=CCC1C=C(C)CC(CC=C)N1` (centres undefined), the “growth rescue (activation)” value is inactive: 10.9%.

Consider `Cc1ccc(NC(=S)N2CCCC(CO)C2)c(C)c1` (centres undefined), for which the “growth rescue (activation)” value is inactive: 2.74%.

For `COc1nc(N(C)C)nc(N(C#N)S(=O)(=O)c2ccc(C)cc2)n1`, the “growth rescue (activation)” value is inactive: 5.69%.

Regarding `c1ccc(-c2nc(NCc3cccs3)c3ccccc3n2)cc1`, the “growth rescue (activation)” value was inactive: 10.1%.

Turning to `CN1CCN(c2nc(-c3cccc([N+](=O)[O-])c3)nc3ccccc23)CC1`, the “growth rescue (activation)” value was inactive: -22.5%.

`O=C1S/C(=C/c2ccccc2F)C(=O)N1CCN=C1NS(=O)(=O)c2ccccc21`: the “growth rescue (activation)” value is inactive: 14.5%.

With `CCOc1ncccc1C(=O)Nc1cc(S(=O)(=O)N2CCOCC2)ccc1OCC(F)(F)F`, the “growth rescue (activation)” value was inactive: -21%.

Consider `COc1ccc(C2NC(=O)NC(C)=C2C(=O)Nc2ccccc2)cc1OC` (centres undefined), for which the “growth rescue (activation)” value was inactive: -13.5%.

Consider `O=C(c1ccc(Cl)cc1)C(CN1CCCCC1)c1ccccc1` (centres undefined), for which the “growth rescue (activation)” value is inactive: 29.3%.

For `Cc1ccccc1C(=O)N/N=C1/SCC(=O)N1Cc1ccc2c(c1)OCO2`, the “growth rescue (activation)” value was inactive: 3.13%.

`Cc1ccc(N(C(=O)c2csnn2)C(C(=O)NC(C)(C)C)c2ccccn2)cc1` (centres undefined): the “growth rescue (activation)” value was inactive: 4.63%.

Consider `CCc1cccc(NS(=O)(=O)c2ccc3c(c2)CCC(=O)N3)c1`, for which the “growth rescue (activation)” value is inactive: 1.53%.

Turning to `CCN(CC)S(=O)(=O)c1cccc(NC(=O)CSc2nc3ccccc3[nH]2)c1`, the “growth rescue (activation)” value is inactive: -8.25%.

On to `COc1ccc2cc(C)c3nnc(SCc4cccnc4)n3c2c1`, for which the “growth rescue (activation)” value is inactive: -1.49%.

As to `Cc1cccc(NC(=O)CSc2nnc(NC(=O)C3CC3)s2)c1C`, the “growth rescue (activation)” value is inactive: 1.87%.

For the molecule `CCCCn1c(=O)[nH]c(=O)c2c1nc(-c1ccc([N+](=O)[O-])cc1)n2CC`, the “growth rescue (activation)” value is inactive: 7.95%.

Turning to `Cc1ccc(C(C(=O)NCc2ccccc2)N(Cc2ccco2)C(=O)c2snc(C(N)=O)c2N)o1` (centres undefined), the “growth rescue (activation)” value was inactive: -6.23%.

Regarding `COc1cc(/C=N/NC(=O)c2cccnc2)ccc1OC(=O)c1cc(OC)c(OC)c(OC)c1`, the “growth rescue (activation)” value is inactive: -2.09%.

Regarding `CC1CCCC(NC(=O)CN2CCN(S(=O)(=O)c3ccc(Br)s3)CC2)C1C` (centres undefined), the “growth rescue (activation)” value was inactive: 20.3%.

Turning to `COc1ccccc1NC(=O)Nc1ccncc1`, the “growth rescue (activation)” value is inactive: -12.2%.

Regarding `COc1ccc(-c2cc(CCCC(=O)NCCc3ccccc3)no2)cc1`, the “growth rescue (activation)” value was inactive: 11.7%.

For the molecule `Cc1ccc(NC(=O)C(C)OC(=O)c2ccc(NS(=O)(=O)c3ccc(F)c(F)c3)cc2)cc1` (centres undefined), the “growth rescue (activation)” value is inactive: 2.68%.

Turning to `COc1cc2c(cc1OC)CN(C(=O)Cc1ccccc1)CC2`, the “growth rescue (activation)” value is inactive: 20.6%.

For the molecule `Cc1ccc(S(=O)(=O)N2CCN(C(=O)NCc3ccc(C(=O)O)cc3)CC2)cc1`, the “growth rescue (activation)” value was inactive: -5.36%.

Turning to `CN(CC(=O)Nc1ccccc1Br)CC(=O)Nc1ccccc1C(F)(F)F`, the “growth rescue (activation)” value was inactive: 19.7%.
